Columns and labels:
[1] = molecular target: T1, human BCMA on cells (human, UniProt Q02223 1-184); test: FACS, U266 cells
T1 construct: whole, on cells; also called H929 cells; U266 cells
T1 sequence (looked up): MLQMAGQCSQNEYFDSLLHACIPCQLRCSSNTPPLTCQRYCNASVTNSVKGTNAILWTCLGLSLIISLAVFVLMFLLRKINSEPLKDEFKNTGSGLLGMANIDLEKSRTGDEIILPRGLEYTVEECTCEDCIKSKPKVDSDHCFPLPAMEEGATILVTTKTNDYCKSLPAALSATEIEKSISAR
Experimental: (§1) H929 cells, U266 cells and RPMI8226 cells were subjected to scale-up culture in T-75 cell culture flask to logarithmic growth phase, and the cells were pipetted to single cell suspension. After counting the cells, centrifugation was performed and the cell pellet was resuspended in FACS buffer (PBS+2% fetal calf serum) to 2×10⁶ cells per ml, and the obtained suspension was added to a 96-well FACS reaction plate at 50 μl per well.

[2] = molecular target: T2, monkey BCMA-His protein (monkey, UniProt A0A2K5UD97 1-53); test: ELISA, monkey BCMA-His coated
T2 construct: bought; monkey species not further stated for this product; also called monkey BCMA protein
Experimental: The binding activity of the control antibody to human BCMA-His protein (purchased from Acro, catalog number: BCA-H522y) and monkey BCMA-His protein (purchased from Acro, catalog number: BCA-C52H7) was detected by ELISA. The specific method was as follows: The antigen protein was diluted with PBS to a final concentration of 1 μg/mL, and then added to a 96-well ELISA plate at 50 μl per well. The plate was sealed with a plastic film and incubated overnight at 4° C., the plate was washed twice with PBS the next day, and then a blocking solution [PBS+2% (w/v) BSA] was added for blocking at room temperature for 2 h. The blocking solution was poured off and 50 μl of 100 nM serially diluted control antibody or negative control antibody was added to each well. After incubation at 37° C. for 2 h, the plate was washed 3 times with PBS. HRP (horseradish peroxidase)-labeled secondary antibody (purchased from Merck, catalog number: AP113P) was added, and incubated at 37° C. for 1 h, and the plate was washed 5 times with PBS. TMB substrate was added at 50 μl/well, and incubated at room temperature for 10 min, then a stop solution (1.0 M HCl) was added at 50 μl/well. The OD450 nm values were read by an ELISA microplate reader (Multimode Plate Reader, EnSight, purchased from Perkin Elmer). The results are shown in Tables 2 and 3 and FIGS. 1A and 1B. […]

[3] = molecular target: T1, human BCMA on cells; test: FACS, H929 cells
Experimental: as §1

[4] = molecular target: T1, human BCMA on cells; test: FACS, RPMI8226 cells
Experimental: as §1

T2 sequence (A0A2K5UD97 entry or part of it limits assumed): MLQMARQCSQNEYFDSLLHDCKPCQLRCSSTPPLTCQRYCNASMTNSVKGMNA

B1: HPN217-hHcAb (Fc fusion)
VHH: EVQLVESGGGLVQPGRSLTLSCAASTNIFSISPYGWYRQAPGKQRELVAAIHGTSTLYADSVKGRFTISRDNAKNSIYLQMNSLRPEDTALYYCNKVPWGDYHPGNVYWGQGTQVTVSS[human IgG1 Fc with C220S (EU numbers) not spelt out]
With B1 the EC50 [1] was 1.83 nM, the binding result [2] was “no binding (tested: 100 nM)” and the EC50 [3] was 2.24 nM. It also gave an EC50 [4] of 1.38 nM.

Reference: patent US20250297021A1 (SHANDONG SIMCERE BIOPHARMACEUTICAL CO NO 1, published 2025)
